PubChem BioAssay AID1030 (National Center for Advancing Translational Sciences (NCATS), 2008)
Among all 220,000 compounds or so, about 16,000 (7.3%) were called active. The inconclusive results got no clear call from the source; some entries with a clear call stand among them for comparison. Calls follow the shape of the dose curve; as a rule, active = well fitted inhibition curve with a large enough effect (not every such curve was filed as active); inconclusive = small, poorly fitted or top-dose-only effect, or another doubt; inactive = no such curve, though single readings can be large or run the other way. No potency is given beside an inconclusive call; the fits are too rough.
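For activity, negative = inhibition in this document: plate controls were no enzyme wells and a reference inhibitor.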
Potency is read from the fitted curve at half-maximal effect; tags tell the direction and shape of the fitted curve.

These compounds were tested against Aldehyde dehydrogenase 1A1 (Homo sapiens) (UniProt P00352) (assay: qHTS Assay for Inhibitors of Aldehyde Dehydrogenase 1 (ALDH1A1)). Conditions: Purified ALDH1A1, NADH fluorescence, propionaldehyde substrate; series mostly up to 75.3 µM; activity, negative = inhibition: at the top concentration.
UniProt P00352, sequence (P00352 whole entry, looked up): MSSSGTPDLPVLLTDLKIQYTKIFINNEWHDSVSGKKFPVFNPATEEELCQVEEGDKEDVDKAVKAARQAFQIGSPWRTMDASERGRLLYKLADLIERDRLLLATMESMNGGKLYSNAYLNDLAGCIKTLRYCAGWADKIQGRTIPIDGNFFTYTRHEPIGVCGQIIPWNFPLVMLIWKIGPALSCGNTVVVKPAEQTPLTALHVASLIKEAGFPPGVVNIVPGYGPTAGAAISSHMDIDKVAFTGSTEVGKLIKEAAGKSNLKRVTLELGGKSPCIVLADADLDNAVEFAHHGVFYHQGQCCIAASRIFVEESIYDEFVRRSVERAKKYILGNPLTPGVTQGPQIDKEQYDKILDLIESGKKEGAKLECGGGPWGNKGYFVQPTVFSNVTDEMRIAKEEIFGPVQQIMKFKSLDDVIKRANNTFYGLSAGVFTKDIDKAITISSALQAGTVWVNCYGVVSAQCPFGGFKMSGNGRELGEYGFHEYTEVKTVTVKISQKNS
With O=C(CNCC1(N2CCOCC2)CCCCC1)Nc1ccc(Cl)cc1 the Potency was inconclusive [inhibitor, partial curve].
For COc1ccc2cc3cc(C(=O)Nc4cc(OC)c(OC)c(OC)c4)oc3nc2c1, the Potency was inconclusive [inhibitor, single point].
O=c1c2ccccc2cnn1Cc1n[nH]c(=S)n1-c1ccc(F)c(Cl)c1 was tested, and the Potency was inconclusive [inhibitor, single point].
In the case of COc1ccc(-n2c(-c3ccccc3)cc3c2CCCC3=O)cc1, the Potency is reported as active: 15.8 µM.
O=C(CSc1nnnn1C1CCCCC1)NCc1cccc(C(=O)O)c1 was tested, and the Potency was inconclusive [inhibitor, single point].
In the case of COC/C=C/C1=CC2=CC(=O)C(C)(OC(=O)c3cnc4ccccc4n3)C(=O)C2=CN1CCc1ccccn1 (centres undefined), the activity, negative = inhibition is reported as inactive: 19.2% [at 13.5 µM].
With COc1ccc(CCN2CC(O)=C(c3nc4ccccc4c(=O)[nH]3)C2=N)cc1OC the Potency was inconclusive [inhibitor, partial curve].
COc1cccc(/C=N/N=C(\N)c2nonc2N)c1O was tested, and the “activity, negative = inhibition” value was inactive: 2.66%.
For CC1CCC(NC(=S)NCCN(C)C)CC1 (centres undefined), the Potency was active: 1.58 µM.
For COCCNC(=O)c1ccc(Cc2nc3ccccc3[nH]2)cc1, the “activity, negative = inhibition” value was inactive: 15%.
In the case of O=C(c1cc2nc(-c3cccs3)cc(C(F)(F)Cl)n2n1)N1CCCc2ccccc21, the “activity, negative = inhibition” value is reported as inactive: -12.8%.
For Cc1nnc(SCC(=O)N2CCc3ccccc32)s1, the Potency was active: 28.2 µM.
For CC(C)NS(=O)(=O)c1ccc(OCC(=O)Nc2ccc(F)cc2F)cc1, the “activity, negative = inhibition” value was inactive: 17.2%.
With COc1ccc(C2C3=C(CC(C)(C)CC3=O)Nc3cc4c(cc32)OCO4)cc1 (centres undefined) the Potency was inconclusive [inhibitor, single point].
In the case of COc1ccccc1-n1c(CNc2c(C)cccc2C)nnc1SCC(=O)N1CCOCC1, the “activity, negative = inhibition” value is reported as inactive: 1.51%.
For CCCn1c2c(c(O)c(C(=O)NCCCN(CC)CC)c1=O)CCCC2, the Potency was active: 28.2 µM.
For O=[N+]([O-])c1cccc(/C=N/n2c(COc3ccccc3)n[nH]c2=S)c1, the Potency was inconclusive [inhibitor, single point].
With CCN1C(=O)N(CC)C2C1N(C(C)=O)C(=O)N2C(C)=O (centres undefined) the “activity, negative = inhibition” value was inactive: 3.5%.
With COc1cc(/C=C/C(=O)OCC(=O)c2c(N)n(C)c(=O)n(C)c2=O)ccc1OCC#N the Potency was inconclusive [inhibitor, single point].
For CC1=CC(=O)C(C(C)C)=CC1=NC(=O)c1ccc(C)cc1, the Potency was active: 17.8 µM.
CC(=O)Nc1ccc(S(=O)(=O)N(CCc2ccccc2)CC(=O)N/N=C/c2ccc(C(=O)O)cc2)cc1 was tested, and the Potency was inconclusive [inhibitor, partial curve].
In the case of CCCc1n(CC(O)COC2CCCCC2)c2ccccc2[n+]1C (centres undefined), the “activity, negative = inhibition” value is reported as inactive: -0.827%.
With O=C(NCc1ccccc1)c1cc(S(=O)(=O)N2CCC3(CC2)OCCO3)ccc1F the Potency was inconclusive [inhibitor, partial curve, poor fit].
With O=C(COC(=O)c1cc([N+](=O)[O-])ccc1NCCO)NCc1cccs1 the Potency was inconclusive [inhibitor, single point].
CCOC(=O)C1=C(c2ccccc2)c2cc(OC)ccc2OC1C(=O)OCC (centres undefined) was tested, and the Potency was inconclusive [inhibitor, partial curve].
COc1ccc(CCN(C)C(=O)CCc2nnc(-c3ccccc3)o2)cc1OC was tested, and the “activity, negative = inhibition” value was inactive: 2.64%.
With Cn1/c(=N\NC(=O)C2CCCCC2)sc2ccccc21 the Potency was inconclusive [inhibitor, single point].
For Cc1cc(C)c2c(N)c(C(=O)NC3CC3)sc2n1, the Potency was inconclusive [inhibitor, partial curve].
O=C(CNCCN1CCOCC1)Nc1ccccc1Sc1ccccc1 was tested, and the Potency was active: 31.6 µM.
For COc1ccc(OC)c(C(c2nnnn2CC2CCCO2)N2CCN(C3CCCC3)CC2)c1 (centres undefined), the Potency was inconclusive [inhibitor, single point].
For COc1ccc2cc1Oc1ccc(cc1)C[C@@H]1c3c(cc(OC)c4c3Oc3cc5c(cc3O4)CCN[C@H]5C2)CCN1C, the activity, negative = inhibition was inactive: 3.19% [at 13.5 µM].
With Cc1cc(OCCN2CC(C)OC(C)C2)ccc1[N+](=O)[O-] (centres undefined) the Potency was inconclusive [inhibitor, single point].
With COc1ccccc1-c1c(C(F)(F)F)oc2cc(OC(=O)c3ccccc3[N+](=O)[O-])ccc2c1=O the Potency was inconclusive [inhibitor, full curve].
NS(=O)(=O)c1ccc(CCNC(=S)Nc2ccc(S(N)(=O)=O)cc2)cc1 was tested, and the Potency was inconclusive [inhibitor, single point].
With COc1ccc(-n2nnc3c(SCC(=O)N4CCN(c5ccccc5)CC4)ncnc32)cc1 the Potency was inconclusive [inhibitor, single point].
O=C(Nc1ccn(Cc2ccccc2F)n1)c1ccc(COc2ccc(Br)cc2)cc1 was tested, and the Potency was inconclusive [inhibitor, partial curve].
For Cc1cc(-c2n[nH]c(=S)o2)c(C)n1-c1ccccc1, the Potency was active: 3.55 µM.
CN1CCN(c2nc(-c3ccc4c(c3)OCO4)nc3ccccc23)CC1 was tested, and the Potency was inconclusive [inhibitor, single point].
For Cc1ccc(/C=N/NC(=O)c2ccc(C(=O)N/N=C/c3ccc(C)s3)o2)s1, the Potency was inconclusive [inhibitor, single point].
With CS(=O)(=O)N(CC(=O)N/N=C/c1cc2c(cc1Br)OCO2)c1ccccc1Br the Potency was inconclusive [inhibitor, full curve].
With O=C(O)CCSc1ncnc2sc(-c3ccccc3)cc12 the Potency was inconclusive [inhibitor, single point].
For COCCNC(=O)CN(Cc1cccs1)C(=O)CCC(=O)Nc1nccs1, the “activity, negative = inhibition” value was inactive: -3.76%.
CCc1nc(Nc2ccc(N3CCN(C(C)=O)CC3)cc2)c2oc3ccccc3c2n1 was tested, and the Potency was inconclusive [inhibitor, single point].
With COc1ccccc1CN1C[C@@H]2C[C@@H](c3[nH]c4ccc(C)cc4c3C)N3CCC[C@@]23C1=O the Potency was inconclusive [inhibitor, single point].
